The values below come from ChEMBL document CHEMBL1201862, “PubChem BioAssay data set” (2004).

Where “and” joins values, the source holds several entries; their conditions need not be identical. Equal values may be shown once.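 These data come from cells grown in 96-well plates and exposed to compound for 48 hours at five concentrations. Abbreviation: GI50, concentration required for 50% inhibition of growth.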 Calls of active or inactive are those of the source. No stated cut-off is given here; in the data, active = GI50 up to about 1.1 µM and inactive = higher.

This test relates to NCI-H322M. Put plainly: NCI anticancer screen, dose series, 48 h.
For `Nc1ccc2nc3n(c2c1)C(=O)c1ccccc1-3`, the GI50 is inactive: > 100 µM.

For `CC/N=C(\N)CSS(=O)(=O)O`, the GI50 was inactive: > 100 µM.

Turning to `O=C(O)c1c(-c2nccc3ccccc23)[nH]c(-c2ccccc2)c1S(=O)(=O)O`, the GI50 is inactive: > 100 µM.

With `CC1=NN(c2nc(N)nc(/C(C#N)=C/c3ccc([N+](=O)[O-])o3)n2)C(C)(C)C1`, the GI50 was inactive: 22.5 µM.

For the compound `CC(=O)N1CCN(C=S)CC1`, the GI50 is inactive: > 100 µM.

`Cc1cc(=O)oc2c(C)c3oc(CBr)c(Br)c3cc12`: the GI50 was inactive: 50.2 µM.

`CCCN1CN(C(C(=O)N[C@@H]2C(=O)N3C(C(=O)O)=C(C)CSC23)c2ccccc2)CSC1=S` (stereo not given in full): the GI50 was inactive: > 100 µM.

In the case of `CC1C[C@]2(C)C(=O)Nc3ccccc3[C@@H]2Nc2ccccc21` (stereo not given in full), the GI50 was inactive: 22 µM.

With `CCOC(=O)C1C(=O)CN2CCc3c([nH]c4ccccc34)C12C(=O)OCC` (stereo not given), the GI50 is inactive: > 100 µM.

`OCC(O)CNc1ccnc2cc(Cl)ccc12` (stereo not given): the GI50 is inactive: > 100 µM.

For `CCOC(=O)/C(=C\NC(C)(C)C)c1nc2ccccc2o1`, the GI50 is inactive: 43.6 µM.

Regarding `O=CC(I)=C(c1ccccc1)c1ccccc1`, the GI50 is inactive: 13 µM.

For `N#CC(C#N)=c1c2nsnc2c(=C(C#N)C#N)c2nsnc12`, the GI50 was inactive: 1.73 µM.

For `C=C(C(=C)P(=S)(C(C)C)C(C)C)P(=S)(C(C)C)C(C)C`, the GI50 was inactive: > 100 µM.

Take `COc1ccc(C(=O)NC2=C(Cl)C(=O)c3ccccc3C2=O)cc1`: the GI50 was inactive: 6.43 µM.

Turning to `Cc1ccc(S(=O)(=O)OCCOCCOCCOCCOCCOS(=O)(=O)c2ccc(C)cc2)cc1`, the GI50 is inactive: 26.7 µM.

Take `CC(=O)NC1c2ccccc2C(C)(C)C12CCC1(CC2)OCCO1` (stereo not given): the GI50 was inactive: > 100 µM.

Take `N/C(=N\Nc1ccc(C(=O)O)cc1)c1cnccn1`: the GI50 was inactive: > 100 µM.

Turning to `CSc1nc2c(c(=O)n1C)N=C(c1ccc([N+](=O)[O-])cc1)CC(c1ccccc1)N2` (stereo not given), the GI50 is inactive: > 100 µM.

On to `CCOC(=O)/C=C(\C(=O)OCC)n1ccc(=O)n(Cc2cnnn2CCCCOC(C)=O)c1=O`, for which the GI50 is inactive: 18.3 µM.

Take `COC(=O)C1=C(c2cc(OC)c(OC)c(OC)c2)O[C@H](c2ccc3c(c2)OCO3)[C@H]1COC(C)=O`: the GI50 was inactive: 60.5 µM.

For the compound `O=[N+]([O-])C(=C/c1cccs1)/C(=C\c1cccs1)[N+](=O)[O-]`, the GI50 is inactive: 2.36 µM.

With `CC1CC(=O)Nc2nc3ccccc3n21` (stereo not given), the GI50 was inactive: > 100 µM.

`COC(=O)CCC(NC(=S)N/N=C(\C)c1ccc[nH]1)C(=O)OC` (stereo not given): the GI50 was inactive: > 100 µM.

As for `O=C1C(C(c2ccccc2)N2CCOCC2)=C(O)C(c2ccccc2)N1c1ccccc1` (stereo not given), the GI50 was inactive: > 10 µM.

`CC(O)CC(O)(C(F)(F)F)C(F)(F)F` (stereo not given): the GI50 was inactive: > 10 µM.

On to `N#Cc1sc2c(c1OC(=O)c1ccc(C(F)(F)F)cc1)c(=O)n(-c1ccccc1)c(=S)n2-c1ccccc1`, for which the GI50 was inactive: 39.7 µM.

Take `C\C(=N/N=C1/C(=C\N(C)C)C(=O)NC(=O)N1C)c1ccc(Cl)cc1`: the GI50 is inactive: > 100 µM.

For the compound `CCCC(=O)NC(Nc1ccc(F)cc1)(C(F)(F)F)C(F)(F)F`, the GI50 was inactive: > 100 µM.

For the compound `Cc1ccc(C(=O)CC(Cl)=C(Cl)Cl)cc1`, the GI50 was inactive: > 100 µM.

Take `COc1ccc(N2C(=O)C3CC4=CC(=O)C[C@H]4[C@H]32)cc1` (stereo not given in full): the GI50 was inactive: 49.2 µM.

As for `S=P(c1ccccc1)(c1ccccc1)C1(C2(P(=S)(c3ccccc3)c3ccccc3)CC2)CC1`, the GI50 is inactive: > 100 µM.

On to `CCCCc1ccc(Nc2cc(=O)n(C)c(=O)[nH]2)cc1`, for which the GI50 is inactive: 54.5 µM.

In the case of `c1ccc2cc(CNCCCCNCCCNCc3ccc4ccccc4c3)ccc2c1`, the GI50 is inactive: 1.49 µM.

For the compound `COC(=O)C1(C)CCCC2(C)C3CCC4CC3(C=C4CO)CCC12` (stereo not given), the GI50 was inactive: 82 µM.

For `Cc1cccc(-c2cc(=S)c3cc(N4CCCC4)ccc3[nH]2)c1`, the GI50 is inactive: > 100 µM.

Turning to `Cc1c(NC(=S)NN)c(=O)n(-c2ccccc2)n1C`, the GI50 was inactive: > 100 µM.

With `O=C1N/C(=N/N=C/C(O)C(O)C(O)CO)N/C1=C\c1ccco1` (stereo not given), the GI50 is inactive: > 100 µM.

Consider `CCOP(=O)(O)C1C(CO)OC(n2ccc(=O)[nH]c2=O)C1O` (stereo not given), for which the GI50 is inactive: > 100 µM.

For the compound `N#CC(/N=N/c1ccccc1)c1nc2ccccc2o1` (stereo not given), the GI50 was inactive: 90.6 µM.

In the case of `CCOC(=O)C1Sc2ccccc2N=C1C` (stereo not given), the GI50 was inactive: > 100 µM.

`O=C1/C(=C/c2ccc3c(c2)CCC3)Cc2cc3c(cc21)CCC3`: the GI50 was inactive: > 100 µM.

As for `CCOC(=O)Cc1ccc2c(c1O)C(=O)c1c(ccc(CC(=O)OCC)c1O)C2=O`, the GI50 is inactive: > 100 µM.

Consider `O=C1NC(=S)NC1C(Cc1ccccc1)c1ccco1` (stereo not given), for which the GI50 was inactive: > 100 µM.

Consider `COC(=O)C(=Cc1cc(OC)c(OC)c(OC)c1-c1cc2c(cc1C1(C)OCCS1)OCO2)C(=O)OC` (stereo not given), for which the GI50 is inactive: 49.9 µM.

Regarding `c1ccc([P+](c2ccccc2)(c2ccccc2)C2c3ccccc3-c3ccccc32)cc1`, the GI50 is inactive: 1.96 µM.

Turning to `CCOC(=O)C(=O)Nc1nc2ccc(C)cc2s1`, the GI50 is inactive: > 100 µM.

On to `COc1ccc(C(SCCO)(c2ccc(OC)cc2)c2ccc(OC)cc2)cc1`, for which the GI50 is inactive: 24.8 µM.

For `C=C(Cl)C(Cl)(CBr)CCC(Cl)C(C)C` (stereo not given), the GI50 is inactive: 3.78 µM.

On to `CC(=O)Oc1ccc(O)c2c1CCCC2`, for which the GI50 was inactive: > 100 µM.

For `O=S1(=O)N=C(NCc2c[nH]c3ccccc23)N(c2ccccc2)c2ccncc21`, the GI50 was inactive: > 100 µM.

In the case of `Cc1ccc(/N=N/c2c(C)c(C#N)c(=S)n(C3OC(CO)C(O)C(O)C3O)c2-c2ccccc2)cc1` (stereo not given), the GI50 is inactive: > 10 µM.

With `Cc1c(-c2ccccc2)cc(O)c2nc3ccccc3n12`, the GI50 was inactive: > 100 µM.

With `NNC(=S)N/N=C(/C(=O)Nc1ccc([N+](=O)[O-])cc1)c1nc2ccc([N+](=O)[O-])cc2nc1O`, the GI50 is inactive: > 100 µM.

`O=C(/C=C\c1ccc(-c2ccccc2)cc1)c1cccs1`: the GI50 was inactive: > 95.7 µM.

With `O/N=C(\CC(O)(C(F)(F)F)C(F)(F)F)c1cccc(Cl)c1`, the GI50 is inactive: 35.3 µM.

In the case of `CC(=O)OCCn1c(Cc2ccc(C)cc2)nn(C(C)=O)c1=O`, the GI50 was inactive: > 100 µM.

`Cc1ccccc1C1SCc2nc3ccccc3n21` (stereo not given): the GI50 was inactive: > 100 µM.

Take `CC(=O)OCC1OC(N2C(=S)N[C@H]([C@@H](O)[C@H](O)[C@H](O)CO)[C@H]2O)C(OC(C)=O)C(OC(C)=O)C1OC(C)=O` (stereo not given in full): the GI50 was inactive: > 100 µM.

Take `Cc1ccc(C)c(COCCOCn2ccc(N)nc2=O)c1`: the GI50 was inactive: > 100 µM.

In the case of `CC1(C)OC[C@@H](O)[C@H](C#N)CO1`, the GI50 is inactive: > 100 µM.

As to `CC1(C)O[C@H]2OC(CO[Si](C)(C)C(C)(C)C)C(N=[N+]=[N-])[C@H]2O1` (stereo not given in full), the GI50 is inactive: 22.9 µM.

Regarding `c1ccc2c(c1)NC(C1OC3CCCN3C1C1Nc3ccccc3S1)S2` (stereo not given), the GI50 was inactive: > 100 µM.

For `COc1ccc(Cc2c(N)[nH]c(=O)[nH]c2=O)cc1`, the GI50 is inactive: > 100 µM.

As to `O=C1OCC/C1=C/c1ccc(/N=N/c2c(O)ccc3ccccc23)cc1`, the GI50 is inactive: 27 µM.

As to `O=C(c1cccs1)N(C(=O)N1CCC(c2ccccc2)CC1)c1ccccc1`, the GI50 was inactive: > 100 µM.

As for `O=C1NC2CCCCC2NC1=C(C(=O)c1ccccc1)C(=O)c1ccccc1` (stereo not given), the GI50 was inactive: 80.5 µM.

For `CCN1CCC(O)(c2ccc(C)cc2)C(C(=O)c2ccc(C)cc2)C1` (stereo not given), the GI50 is inactive: > 100 µM.

Turning to `Cc1ccc(S(=O)(=O)OC2CSSCC2OS(=O)(=O)c2ccc(C)cc2)cc1` (stereo not given), the GI50 was inactive: 18.3 µM.

With `CCCNC1=C(C(=O)OCC)C(=O)CO1`, the GI50 was inactive: > 100 µM.

As to `Cc1ccc(F)cc1NC(=O)O/N=C(\Cl)C(C)C`, the GI50 was inactive: 17.9 µM.

Turning to `O=[N+]([O-])c1nccn1CC(O)c1ccc(F)cc1` (stereo not given), the GI50 is inactive: > 100 µM.

With `CC1=C(C(=O)NCc2ccccc2)C(c2ccc(C3C(C(=O)NCc4ccccc4)=C(C)NC(C)=C3C(=O)NCc3ccccc3)cc2)C(C(=O)NCc2ccccc2)=C(C)N1`, the GI50 was inactive: 18 µM.

Take `CCCCN1C(=O)N(c2ccc(OCC)cc2)C2N(CCCC)C1C(C)(C)C2(C)C` (stereo not given): the GI50 was inactive: 31.7 µM.

As to `CCOC(=O)c1c(Br)c(-c2ccc(Br)cc2)c(Br)n1C`, the GI50 is inactive: 57 µM.

For `COc1cc(=O)oc(/C=C/C=O)c1C`, the GI50 is inactive: 82.6 µM.

In the case of `NCC1(N2CCOCC2)C2CCCC21CO` (stereo not given), the GI50 was inactive: > 100 µM.

With `COc1ccc(/C=C/C(=O)N[C@@H]2C(=O)N3[C@@H]2SC(C)(C)[C@@H]3C(=O)O)cc1OC`, the GI50 is inactive: > 100 µM.

As to `NC(CCCCNc1ccn(C2OC(CO)C(O)C2O)c(=O)n1)C(=O)O` (stereo not given), the GI50 is inactive: > 100 µM.

Take `O=C(OC1C=C=CS(=O)(=O)CC#C/C=C\1)c1cnc2ccccc2n1` (stereo not given): the GI50 was inactive: > 100 µM.

Consider `CC12CC(OC(=O)[C@]1(C)O)[C@@H]([C@]1(O)CC[C@H]3[C@@H]4C[C@H]5O[C@]56[C@@H](O)C=CC(=O)[C@]6(C)[C@H]4CC[C@@]31C)C2` (stereo not given in full), for which the GI50 is inactive: 15.7 µM.

As for `COc1cc2c3cc1Oc1c(OC)c(OC)cc4c1C(Cc1ccc(cc1)Oc1cc(ccc1O)CC3N(C)CC2)N(C)CC4` (stereo not given), the GI50 is inactive: 17.7 µM and inactive: 11.7 µM.

Consider `COc1cc(CC(C)NC(C)=O)cc(OC)c1` (stereo not given), for which the GI50 is inactive: > 100 µM.

Consider `Oc1cc(-c2ccc3ccccc3c2)nc2ncccc12`, for which the GI50 is inactive: 19 µM.

As for `Nc1ncnc2c1ncn2C1OC(CO)CC1O` (stereo not given), the GI50 was inactive: 26.9 µM.
